This is one part of the list.
Assays:
Test in all cases: glycan array binding signal (z-score within array); higher = stronger binding
Conditions in all cases: glycan notation: IUPAC condensed, linker removed
[1] = target: GlcNAc(b1-2)[GlcNAc(b1-4)]Man(a1-3)[GlcNAc(b1-4)][GlcNAc(b1-2)[GlcNAc(b1-6)]Man(a1-6)]Man(b1-4)GlcNAc(b1-4)[Fuc(a1-6)]GlcNAc
Procedure, shortened: (§1)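 The binding signal is a Z-score computed within each array and averaged over linkers. Arrays of the same protein sequence at different concentrations or buffers were also averaged together. Data originate from 3228 arrays in the Consortium for Functional Glycomics database, kept only where the protein sequence was available.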

[2] = target: GlcNAc(b1-2)[GlcNAc(b1-6)]Man(a1-6)[GlcNAc(b1-2)Man(a1-3)]Man(b1-4)GlcNAc(b1-4)GlcNAc
Procedure, shortened: as §1

[3] = target: GlcNAc(b1-2)[GlcNAc(b1-6)]Man(a1-6)[GlcNAc(b1-2)Man(a1-3)]Man(b1-4)GlcNAc(b1-4)[Fuc(a1-6)]GlcNAc
Procedure, shortened: as §1

[4] = target: GlcNAc(b1-2)[GlcNAc(b1-6)]Man(a1-6)[GlcNAc(b1-4)][GlcNAc(b1-2)Man(a1-3)]Man(b1-4)GlcNAc(b1-4)GlcNAc
Procedure, shortened: as §1

GlcNAc(b1-3)Fuc = target: GlcNAc(b1-3)Fuc
Procedure, shortened: as §1

GlcNAc(b1-3)Gal = target: GlcNAc(b1-3)Gal
Procedure, shortened: as §1

[5] = target: GlcNAc(b1-3)Gal(b1-3)GalNAc
Procedure, shortened: as §1

GlcNAc(b1-3)Gal(b1-4)Glc = target: GlcNAc(b1-3)Gal(b1-4)Glc
Procedure, shortened: as §1

[6] = target: GlcNAc(b1-3)Gal(b1-4)GlcNAc
Procedure, shortened: as §1

[7] = target: GlcNAc(b1-3)Gal(b1-4)GlcNAc(b1-2)Man(a1-3)[GlcNAc(b1-3)Gal(b1-4)GlcNAc(b1-2)Man(a1-6)]Man(b1-4)GlcNAc(b1-4)GlcNAc
Procedure, shortened: as §1

[8] = target: GlcNAc(b1-3)Gal(b1-4)GlcNAc(b1-2)Man(a1-3)[GlcNAc(b1-3)Gal(b1-4)GlcNAc(b1-2)Man(a1-6)]Man(b1-4)GlcNAc(b1-4)[Fuc(a1-6)]GlcNAc
Procedure, shortened: as §1

[9] = target: GlcNAc(b1-3)Gal(b1-4)GlcNAc(b1-2)[GlcNAc(b1-3)Gal(b1-4)GlcNAc(b1-6)]Man(a1-6)[GlcNAc(b1-3)Gal(b1-4)GlcNAc(b1-2)Man(a1-3)]Man(b1-4)GlcNAc(b1-4)GlcNAc
Procedure, shortened: as §1

[10] = target: GlcNAc(b1-3)Gal(b1-4)GlcNAc(b1-3)Gal(b1-4)GlcNAc
Procedure, shortened: as §1

[11] = target: GlcNAc(b1-3)Gal(b1-4)GlcNAc(b1-3)Gal(b1-4)GlcNAc(b1-2)Man(a1-3)[GlcNAc(b1-3)Gal(b1-4)GlcNAc(b1-3)Gal(b1-4)GlcNAc(b1-2)Man(a1-6)]Man(b1-4)GlcNAc(b1-4)GlcNAc
Procedure, shortened: as §1

[12] = target: GlcNAc(b1-3)Gal(b1-4)GlcNAc(b1-3)Gal(b1-4)GlcNAc(b1-2)Man(a1-3)[GlcNAc(b1-3)Gal(b1-4)GlcNAc(b1-3)Gal(b1-4)GlcNAc(b1-2)Man(a1-6)]Man(b1-4)GlcNAc(b1-4)[Fuc(a1-6)]GlcNAc
Procedure, shortened: as §1

[13] = target: GlcNAc(b1-3)Gal(b1-4)GlcNAc(b1-3)Gal(b1-4)GlcNAc(b1-2)[GlcNAc(b1-3)Gal(b1-4)GlcNAc(b1-3)Gal(b1-4)GlcNAc(b1-6)]Man(a1-6)[GlcNAc(b1-3)Gal(b1-4)GlcNAc(b1-3)Gal(b1-4)GlcNAc(b1-2)Man(a1-3)]Man(b1-4)GlcNAc(b1-4)[Fuc(a1-6)]GlcNAc
Procedure, shortened: as §1

[14] = target: GlcNAc(b1-3)Gal(b1-4)GlcNAc(b1-3)Gal(b1-4)GlcNAc(b1-3)Gal(b1-4)GlcNAc(b1-2)Man(a1-3)[GlcNAc(b1-3)Gal(b1-4)GlcNAc(b1-3)Gal(b1-4)GlcNAc(b1-3)Gal(b1-4)GlcNAc(b1-2)Man(a1-6)]Man(b1-4)GlcNAc(b1-4)GlcNAc
Procedure, shortened: as §1

[15] = target: GlcNAc(b1-3)Gal(b1-4)GlcNAc(b1-3)Gal(b1-4)GlcNAc(b1-3)Gal(b1-4)GlcNAc(b1-2)Man(a1-3)[GlcNAc(b1-3)Gal(b1-4)GlcNAc(b1-3)Gal(b1-4)GlcNAc(b1-3)Gal(b1-4)GlcNAc(b1-2)Man(a1-6)]Man(b1-4)GlcNAc(b1-4)[Fuc(a1-6)]GlcNAc
Procedure, shortened: as §1

[16] = target: GlcNAc(b1-3)Gal(b1-4)GlcNAc(b1-3)Gal(b1-4)GlcNAc(b1-3)Gal(b1-4)GlcNAc(b1-2)[GlcNAc(b1-3)Gal(b1-4)GlcNAc(b1-3)Gal(b1-4)GlcNAc(b1-3)Gal(b1-4)GlcNAc(b1-6)]Man(a1-6)[GlcNAc(b1-3)Gal(b1-4)GlcNAc(b1-3)Gal(b1-4)GlcNAc(b1-3)Gal(b1-4)GlcNAc(b1-2)Man(a1-3)]Man(b1-4)GlcNAc(b1-4)[Fuc(a1-6)]GlcNAc
Procedure, shortened: as §1

[17] = target: GlcNAc(b1-3)Gal(b1-4)GlcNAc(b1-3)Gal(b1-4)GlcNAc(b1-3)Gal(b1-4)GlcNAc(b1-3)Gal(b1-4)GlcNAc(b1-2)Man(a1-3)[GlcNAc(b1-3)Gal(b1-4)GlcNAc(b1-3)Gal(b1-4)GlcNAc(b1-3)Gal(b1-4)GlcNAc(b1-3)Gal(b1-4)GlcNAc(b1-2)Man(a1-6)]Man(b1-4)GlcNAc(b1-4)GlcNAc
Procedure, shortened: as §1

[18] = target: GlcNAc(b1-3)Gal(b1-4)GlcNAc(b1-3)Gal(b1-4)GlcNAc(b1-3)Gal(b1-4)GlcNAc(b1-3)Gal(b1-4)GlcNAc(b1-2)Man(a1-3)[GlcNAc(b1-3)Gal(b1-4)GlcNAc(b1-3)Gal(b1-4)GlcNAc(b1-3)Gal(b1-4)GlcNAc(b1-3)Gal(b1-4)GlcNAc(b1-2)Man(a1-6)]Man(b1-4)GlcNAc(b1-4)[Fuc(a1-6)]GlcNAc
Procedure, shortened: as §1

[19] = target: GlcNAc(b1-3)Gal(b1-4)GlcNAc(b1-3)Gal(b1-4)GlcNAc(b1-3)Gal(b1-4)GlcNAc(b1-3)Gal(b1-4)GlcNAc(b1-2)[GlcNAc(b1-3)Gal(b1-4)GlcNAc(b1-3)Gal(b1-4)GlcNAc(b1-3)Gal(b1-4)GlcNAc(b1-3)Gal(b1-4)GlcNAc(b1-6)]Man(a1-6)[GlcNAc(b1-3)Gal(b1-4)GlcNAc(b1-3)Gal(b1-4)GlcNAc(b1-3)Gal(b1-4)GlcNAc(b1-3)Gal(b1-4)GlcNAc(b1-2)Man(a1-3)]Man(b1-4)GlcNAc(b1-4)[Fuc(a1-6)]GlcNAc
Procedure, shortened: as §1

[20] = target: GlcNAc(b1-3)Gal(b1-4)GlcNAc(b1-3)Gal(b1-4)GlcNAc(b1-3)GalNAc
Procedure, shortened: as §1

[21] = target: GlcNAc(b1-3)Gal(b1-4)GlcNAc(b1-3)GalNAc
Procedure, shortened: as §1

[22] = target: GlcNAc(b1-3)Gal(b1-4)GlcNAc(b1-3)[GlcNAc(b1-3)Gal(b1-4)GlcNAc(b1-3)]GalNAc
Procedure, shortened: as §1

[23] = target: GlcNAc(b1-3)Gal(b1-4)GlcNAc(b1-6)[Gal(b1-3)]GalNAc
Procedure, shortened: as §1

[24] = target: GlcNAc(b1-3)Gal(b1-4)GlcNAc(b1-6)[GlcNAc(b1-3)Gal(b1-3)]GalNAc
Procedure, shortened: as §1

[25] = target: GlcNAc(b1-3)Gal(b1-4)GlcNAc(b1-6)[GlcNAc(b1-3)]Gal(b1-4)GlcNAc
Procedure, shortened: as §1

GlcNAc(b1-3)GalNAc = target: GlcNAc(b1-3)GalNAc
Procedure, shortened: as §1

GlcNAc(b1-3)Man = target: GlcNAc(b1-3)Man
Procedure, shortened: as §1

[26] = target: GlcNAc(b1-3)[GlcNAc(b1-4)][GlcNAc(b1-6)]GlcNAc
Procedure, shortened: as §1

[27] = target: GlcNAc(b1-3)[GlcNAc(b1-6)]Gal(b1-4)GlcNAc
Procedure, shortened: as §1

[28] = target: GlcNAc(b1-3)[GlcNAc(b1-6)]GalNAc
Procedure, shortened: as §1

[29] = target: GlcNAc(b1-4)Gal(b1-4)GlcNAc
Procedure, shortened: as §1

GlcNAc(b1-4)GlcNAc = target: GlcNAc(b1-4)GlcNAc
Procedure, shortened: as §1

[30] = target: GlcNAc(b1-4)GlcNAc(b1-4)GlcNAc
Procedure, shortened: as §1

[31] = target: GlcNAc(b1-4)GlcNAc(b1-4)GlcNAc(b1-4)GlcNAc(b1-4)GlcNAc
Procedure, shortened: as §1

[32] = target: GlcNAc(b1-4)GlcNAc(b1-4)GlcNAc(b1-4)GlcNAc(b1-4)GlcNAc(b1-4)GlcNAc
Procedure, shortened: as §1

B1: Pbx1 (Cryptococcus neoformans) (protein)
chain: ATTKCLVSGDQDSINNALALGGEGTTVTLCPGSVHRLNSSIIFTAPSQTLTTLGNPKDRNRAMLVVDGEDLACAIRADCKQCSHAMIRSLVIDGNRPQLLRIPKGDALIEVGNAESQTVRDCKLYEPRGWSALHFREGDERQCRFGHIVDNEIGPCGEEWDDEYDSMDETKPLWGNPRADGISLACKDSIVERNVVYDATDGAIVLFGSAGSTVKNNHVYARTRVILGGINLVDYEPWDGDYTNVKVHHNHLYALGRYFKVGIVIGPASWSDDTESVVHSASVTDNEFSGGYWGYGIVVASAKNFEVLRNKVIWDGEQGVARFSGVPGSRCPKAPENGKPTAFLINRGSAKGIFQDDFVNGEVQHIICLNPDQDPPYKPWRFRDSPEAIAAKQAENPTANSAFDSRIAEALVSYQMSLLNSMDAMTQKVEHLTNPIVDDALPFVHEHERAEADKKARQEASRKEKESGNKDVDMLNVKVEELEKSGRRLKKALDGLKSDFEGLSGRLKKSADENKPIIETIFVTSQNLLLGATSQQN
glycan array binding signal (z-score) [1]: -0.658
glycan array binding signal (z-score) [2]: 0.498
glycan array binding signal (z-score) [3]: -0.137
glycan array binding signal (z-score) [4]: -0.848
glycan array binding signal (z-score) (GlcNAc(b1-3)Fuc): -0.299
glycan array binding signal (z-score) (GlcNAc(b1-3)Gal): -0.639
glycan array binding signal (z-score) [5]: 0.011
glycan array binding signal (z-score) (GlcNAc(b1-3)Gal(b1-4)Glc): -0.993
glycan array binding signal (z-score) [6]: -0.699
glycan array binding signal (z-score) [7]: 0.1
glycan array binding signal (z-score) [8]: -0.528
glycan array binding signal (z-score) [9]: 1.68
glycan array binding signal (z-score) [10]: -0.38
glycan array binding signal (z-score) [11]: 0.7
glycan array binding signal (z-score) [12]: 0.33
glycan array binding signal (z-score) [13]: 0.673
glycan array binding signal (z-score) [14]: 0.83
glycan array binding signal (z-score) [15]: 1.29
glycan array binding signal (z-score) [16]: -0.012
glycan array binding signal (z-score) [17]: -0.206
glycan array binding signal (z-score) [18]: 0.554
glycan array binding signal (z-score) [19]: 1.2
glycan array binding signal (z-score) [20]: -0.287
glycan array binding signal (z-score) [21]: -0.666
glycan array binding signal (z-score) [22]: -0.748
glycan array binding signal (z-score) [23]: -0.674
glycan array binding signal (z-score) [24]: -0.852
glycan array binding signal (z-score) [25]: -0.917
glycan array binding signal (z-score) (GlcNAc(b1-3)GalNAc): -0.45
glycan array binding signal (z-score) (GlcNAc(b1-3)Man): -0.289
glycan array binding signal (z-score) [26]: -1.09
glycan array binding signal (z-score) [27]: -0.304
glycan array binding signal (z-score) [28]: -0.235
glycan array binding signal (z-score) [29]: -0.701
glycan array binding signal (z-score) (GlcNAc(b1-4)GlcNAc): -0.106
glycan array binding signal (z-score) [30]: -0.565
glycan array binding signal (z-score) [31]: -0.631
glycan array binding signal (z-score) [32]: -0.063

Reference: the supplement of paper PMC8728848
